# In the RNAGym collection of RNA variant scans (doi:10.7554/elife.90254):
# The source gives no read counts; variants with many changes may rest on few reads.
# B1: LINE1-mini (parent)
# chain: GGCAGAGCUCAACACAGCGUGGCAAAGUGGCUGUGGCUAGACUGCC
# Variants of: B1
# Test: self-cleavage, relative activity (ratio to wild type); higher = more cleavage; in vitro, sequencing; the parent is a self-cleaving ribozyme
row,Variant,self-cleavage
1,A4U U20C C45G,0.05
2,A4U U20G A39U,0.09
3,G5A A6U C10A G22C U34A,0
4,G5A A16U G35U,0.09
5,A4U U28C U32A,0.07
6,G5A A26G C37G C42A,0.07
7,G5A A16C G17C C31A,0.06
8,A4U U28C G30U C37A U38A C42U,0.04
9,G5A A26G G29U C31U G36U,0.06
10,G5A A12C C23G C31A A41U C46A,0
11,G5A A16U A41U C45A,0.07
12,A4U U9C G22C C45A,0.02
13,A4U U28G U38A,0.13
14,G5A A6G A11U C15U,0.08
15,A4U U43G C45A,0.04
16,A4U U20G G30U A39C,0.03
17,A4U U32G C42A,0.03
18,G5A A11G G29U C37A,0.03
19,G5A A12C C18U G29U G35A,0.03
20,G5A A6U G21C G35A,0.1
21,G5A A16C G29U G40A C42G,0.07
22,G5A A11C A25U U38C G40A,0.01
23,G5A A6C C10U C42G C45A,0.02
24,A4U U9G G44C,0.02

row,Variant,self-cleavage
1,G5A A16C A26U U38C A41C,0.02
2,G5A A6C A11G A16C,0.01
3,G5A A11C C23A,0.01
4,G5A A6C A11U C13U A14G C23A,0.01
5,G5A A14U G36U C42G,0.03
6,G5A A6U U9G A16C,0.09
7,G5A A25G G33A,0.16
8,G5A A25U G27U,0.09
9,A4U U32G G44U C46G,0.07
10,G5A A6C A12G C13G U38C,0.03
11,G5A A14G C23A G30A A41C,0.05
12,G5A A6G C13A C18U C23G G36C C37A C46U,0.06
13,G5A A6C U9C G21U G40U,0.08
14,G5A A11C G17C,0.01
15,G5A A12U C13U G19U U38C,0.32
16,G5A A11U A25U G30A C46A,0.03
17,G5A A12G C15G C18A U32C,0.04
18,A4U U20C G21U,0.14
19,G5A A41C C46A,0.06
20,G5A A25U U32A,0.06
21,G5A A25U U32G,0.07
22,G5A A24U G29C,0.01
23,G5A A6G C15U C31G,0.04
24,G5A A6G G29A C31U U34G,0.03

row,Variant,self-cleavage
1,G5A A25G G40A C42A,0.04
2,A4U U20A U34C,0.37
3,G5A A39C C45A,0.04
4,A4U U9G G22A,0.28
5,G5A A12G G30C,0.06
6,G5A A14U G27C G36A G44C,0.03
7,A4U U9G G36U C42U,0.01
8,A4U U9C A11U,0.02
9,G5A A6C A25G G29C,0.04
10,G5A A12U C15U G44U,0.01
11,G5A A26U G30A C42G,0.12
12,G5A A12C C37G U38G,0
13,A4U U9A G29U,0.17
14,G5A A26U A39G,0.05
15,A4U U32A C37G U38A,0.08
16,G5A A14U G21C C37A G40U,0.06
17,G5A A11U G21C A24U,0.01
18,G5A A12C G40C,0
19,G5A A16U G30U C37U C46A,0.04
20,A4U U20C G33U,0.03
21,G5A A12C U20G A24G G27U C42U C46A,0.03
22,G5A A24C G30C U34G A39U,0
23,A4U U9C A12G C23A G40U,0
24,G5A A12G U28C A39G,0.03

row,Variant,self-cleavage
1,G5A A16G U28A,0.03
2,G5A A12C G22U,0.05
3,G5A A16G C23U G27A,0.08
4,G5A A6G G7U U9A A25C G30A,0.06
5,G5A A24C U28A,0.04
6,G5A A11C U38A A39C,0.01
7,G5A A14C A39G,0.08
8,G5A A11C A12U C18A A24U G27C A41C,0.01
9,G5A A12U U28G G30C,0.1
10,G5A A11G A24U,0.09
11,G5A A14U U43A G44A,0.05
12,G5A A14C C46A,0.21
13,G5A A14G C15G U28C A41G,0
14,G5A A25U C45U,0.28
15,G5A A26U A39U U43C,0.05
16,A4U U9G G21C G22A U32C G33U G35U,0.08
17,G5A A6C U32G,0.03
18,G5A A6C C10G A11G,0.02
19,G5A A11G C37G,0.01
20,G5A A6G G7U C23A U28A C31A U34A,0.17
21,A4U U9C G21U C45A,0.03
22,A4U U28G G40A,0.09
23,G5A A12G A24U,0.03
24,A4U U32G G36C C46U,0.04

row,Variant,self-cleavage
1,G5A A25U C31U,0
2,G5A A11C C42U,0.04
3,G5A A14U U20A G40C G44A,0.05
4,G5A A14U G40A,0.13
5,G5A A6G A24U A39U,0.04
6,G5A A12C C31U,0.03
7,G5A A25U C42G G44U,0.02
8,G5A A25C A39G G40U C45U,0.03
9,A4U U20A G36U,0.31
10,G5A A26U U34A A39C A41G,0
11,G5A A12G U28G,0.03
12,G5A A11G A16C U34C A41C C46A,0.03
13,G5A A6G A24U,0.03
14,A4U U9C G19U,0.07
15,A4U U9A U28G C45A C46U,0.11
16,G5A A12C C46G,0.03
17,G5A A6U U9A A12C G21C A24G A26C,0.04
18,G5A A11G U32A,0.03
19,G5A A24G G36C,0.05
20,G5A A14C G21C A26C C45U,0.15
21,G5A A24U C37U,0.04
22,G5A A6U A12C C15A U28C,0.03
23,G5A A11C C15A,0.03
24,G5A A14U G22C C42U,0.3

row,Variant,self-cleavage
1,A4U U9C G33U,0.04
2,G5A A25G G35A,0.08
3,A4U U28C G40U,0.09
4,G5A A11C G22A C23G A25G G30A,0.02
5,G5A A16U G17U C18G G29A C42U,0.02
6,G5A A12G G21C A25C,0.01
7,G5A A6C G17A A24G C31A C37A,0.04
8,G5A A12G A16U G17U G21U,0.01
9,G5A A14G C37A,0.31
10,A4U U9G A12C G33A,0.02
11,G5A A6G U20C C31A G35C,0.01
12,G5A A12C G17A G33A,0.03
13,G5A A6G A14U G22A,0.15
14,A4U U9C C23A G35C,0.06
15,G5A A16U U32C G33U G35C A39G,0.04
16,A4U U9G G17A,0.04
17,G5A A25U U28A C37A,0.05
18,G5A A14G A24C U28A G40C C42U,0.05
19,G5A A16C G29C C37A C46G,0
20,G5A A11C A26G G44U,0.03
21,G5A A11G G35U,0.04
22,G5A A16C U34C,0.07
23,G5A A11U U32G G33A,0.01
24,G5A A14U G44C,0

row,Variant,self-cleavage
1,G5A A26U G27C G29U C31A,0.02
2,A4U U28C G33C C46U,0.06
3,G5A A11U C15U,0.02
4,G5A A14C G36A A41G C42U,0.1
5,G5A A11U C13U A16C G30C C37U A41U,0
6,G5A A25G C37U,0.02
7,G5A A25C C45A,0.01
8,G5A A6U G7U C23G,0.08
9,G5A A6U G30U A41C,0.02
10,G5A A12G C13G A24U U28A,0.29
11,G5A A14U C18A G21U U32A C46A,0.02
12,G5A A11G A12C C15A G27U G36A,0.01
13,G5A A12C C31A G36C G44A,0
14,G5A A26U U38A U43G C45G,0.07
15,G5A A6U G7A,0.09
16,G5A A6G A25G,0.06
17,A4U U20G G22C U34A G36A,0.07
18,A4U U28A G36U,0.15
19,G5A A16C G33U U34A,0.05
20,G5A A12C A14U G17U,0.03
21,A4U U9G C31A,0.05
22,G5A A24U A25C G30A U43C,0.04
23,G5A A14C C15A A16U C31U A41G,0
